# Measurements reported in the supplement of paper PMC8728848.
# This is one part of the list.
# How the values were obtained:
# Assay in all cases: glycan array binding signal (z-score within array); higher = stronger binding
# Details in all cases: glycan notation: IUPAC condensed, linker removed
# [1] = molecular target: Neu5Ac(a2-3)Gal(b1-3)[Neu5Ac(a2-6)]GalNAc
# Procedure, shortened: (§1)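 Glycan array data came from 3228 arrays in the Consortium for Functional Glycomics database, and only arrays with an available protein sequence were kept. Glycan names were put into IUPAC-condensed notation, and columns mapping to the same glycan were averaged. The binding signal is a within-array Z-score, averaged across arrays of one protein sequence run at different concentrations or buffers and across linkers. A negative Z-score can be read as non-binding.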
# Neu5Ac(a2-3)Gal(b1-4)Glc = molecular target: Neu5Ac(a2-3)Gal(b1-4)Glc
# Procedure, shortened: as §1
# [2] = molecular target: Neu5Ac(a2-3)Gal(b1-4)GlcNAc
# Procedure, shortened: as §1
# [3] = molecular target: Neu5Ac(a2-3)Gal(b1-4)GlcNAc(b1-2)Man(a1-3)[Neu5Ac(a2-3)Gal(b1-4)GlcNAc(b1-2)Man(a1-6)]Man(b1-4)GlcNAc(b1-4)GlcNAc
# Procedure, shortened: as §1
# [4] = molecular target: Neu5Ac(a2-3)Gal(b1-4)GlcNAc(b1-3)Gal(b1-4)GlcNAc
# Procedure, shortened: as §1
# [5] = molecular target: Neu5Ac(a2-3)Gal(b1-4)GlcNAc(b1-3)Gal(b1-4)GlcNAc(b1-3)Gal(b1-4)GlcNAc
# Procedure, shortened: as §1
# [6] = molecular target: Neu5Ac(a2-3)Gal(b1-4)GlcNAc(b1-3)Gal(b1-4)[Fuc(a1-3)]GlcNAc
# Procedure, shortened: as §1
# [7] = molecular target: Neu5Ac(a2-3)Gal(b1-4)GlcNAc6S
# Procedure, shortened: as §1
# [8] = molecular target: Neu5Ac(a2-3)Gal(b1-4)[Fuc(a1-3)]GlcNAc
# Procedure, shortened: as §1
# [9] = molecular target: Neu5Ac(a2-3)Gal(b1-4)[Fuc(a1-3)]GlcNAc(b1-3)Gal
# Procedure, shortened: as §1
# [10] = molecular target: Neu5Ac(a2-3)Gal(b1-4)[Fuc(a1-3)]GlcNAc(b1-3)Gal(b1-4)GlcNAc
# Procedure, shortened: as §1
# [11] = molecular target: Neu5Ac(a2-3)Gal(b1-4)[Fuc(a1-3)]GlcNAc(b1-3)Gal(b1-4)[Fuc(a1-3)]GlcNAc(b1-3)Gal(b1-4)[Fuc(a1-3)]GlcNAc
# Procedure, shortened: as §1
# [12] = molecular target: Neu5Ac(a2-3)Gal(b1-4)[Fuc(a1-3)]GlcNAc6S
# Procedure, shortened: as §1
# [13] = molecular target: Neu5Ac(a2-3)Gal6S(b1-4)GlcNAc
# Procedure, shortened: as §1
# [14] = molecular target: Neu5Ac(a2-3)Gal6S(b1-4)[Fuc(a1-3)]GlcNAc
# Procedure, shortened: as §1
# Neu5Ac(a2-3)GalNAc = molecular target: Neu5Ac(a2-3)GalNAc
# Procedure, shortened: as §1
# [15] = molecular target: Neu5Ac(a2-3)GalNAc(b1-4)GlcNAc
# Procedure, shortened: as §1
# [16] = molecular target: Neu5Ac(a2-3)[GalNAc(b1-4)]Gal(b1-4)Glc
# Procedure, shortened: as §1
# [17] = molecular target: Neu5Ac(a2-3)[GalNAc(b1-4)]Gal(b1-4)GlcNAc
# Procedure, shortened: as §1
# [18] = molecular target: Neu5Ac(a2-3)[Neu5Ac(a2-6)]GalNAc
# Procedure, shortened: as §1
# Neu5Ac(a2-6)Gal = molecular target: Neu5Ac(a2-6)Gal
# Procedure, shortened: as §1
# Neu5Ac(a2-6)Gal(b1-4)Glc = molecular target: Neu5Ac(a2-6)Gal(b1-4)Glc
# Procedure, shortened: as §1
# [19] = molecular target: Neu5Ac(a2-6)Gal(b1-4)GlcNAc
# Procedure, shortened: as §1
# [20] = molecular target: Neu5Ac(a2-6)Gal(b1-4)GlcNAc(b1-3)Gal(b1-4)GlcNAc
# Procedure, shortened: as §1
# [21] = molecular target: Neu5Ac(a2-6)Gal(b1-4)GlcNAc(b1-3)Gal(b1-4)[Fuc(a1-3)]GlcNAc(b1-3)Gal(b1-4)[Fuc(a1-3)]GlcNAc
# Procedure, shortened: as §1
# [22] = molecular target: Neu5Ac(a2-6)Gal(b1-4)GlcNAc6S
# Procedure, shortened: as §1
# Neu5Ac(a2-6)GalNAc = molecular target: Neu5Ac(a2-6)GalNAc
# Procedure, shortened: as §1
# [23] = molecular target: Neu5Ac(a2-6)GalNAc(b1-4)GlcNAc
# Procedure, shortened: as §1
# Neu5Ac(a2-8)Neu5Ac = molecular target: Neu5Ac(a2-8)Neu5Ac
# Procedure, shortened: as §1
# [24] = molecular target: Neu5Ac(a2-8)Neu5Ac(a2-3)Gal(b1-4)Glc
# Procedure, shortened: as §1
# [25] = molecular target: Neu5Ac(a2-8)Neu5Ac(a2-3)[GalNAc(b1-4)]Gal(b1-4)Glc
# Procedure, shortened: as §1
# [26] = molecular target: Neu5Ac(a2-8)Neu5Ac(a2-8)Neu5Ac
# Procedure, shortened: as §1
# [27] = molecular target: Neu5Ac(a2-8)Neu5Ac(a2-8)Neu5Ac(a2-3)Gal(b1-4)Glc
# Procedure, shortened: as §1
# [28] = molecular target: Neu5Ac(a2-8)Neu5Ac(a2-8)Neu5Ac(a2-3)[GalNAc(b1-4)]Gal(b1-4)Glc
# Procedure, shortened: as §1
# [29] = molecular target: Neu5Ac(a2-8)Neu5Ac(a2-8)Neu5Ac(a2-8)Neu5Ac(a2-3)[GalNAc(b1-4)]Gal(b1-4)Glc
# Procedure, shortened: as §1
# Neu5Ac(b1-6)GalNAc = molecular target: Neu5Ac(b1-6)GalNAc
# Procedure, shortened: as §1
# [30] = molecular target: Neu5Ac(b2-6)Gal(b1-4)GlcNAc
# Procedure, shortened: as §1
# [31] = molecular target: Neu5Ac9Ac(a2-6)Gal(b1-4)GlcNAc
# Procedure, shortened: as §1
# [32] = molecular target: Neu5Gc(a2-3)Gal(b1-3)GlcNAc
# Procedure, shortened: as §1
# [33] = molecular target: Neu5Gc(a2-3)Gal(b1-3)[Fuc(a1-4)]GlcNAc
# Procedure, shortened: as §1
# Neu5Gc(a2-3)Gal(b1-4)Glc = molecular target: Neu5Gc(a2-3)Gal(b1-4)Glc
# Procedure, shortened: as §1
# [34] = molecular target: Neu5Gc(a2-3)Gal(b1-4)GlcNAc
# Procedure, shortened: as §1
# [35] = molecular target: Neu5Gc(a2-3)Gal(b1-4)[Fuc(a1-3)]GlcNAc
# Procedure, shortened: as §1
# [36] = molecular target: Neu5Gc(a2-6)Gal(b1-4)GlcNAc
# Procedure, shortened: as §1
# Neu5Gc(a2-6)GalNAc = molecular target: Neu5Gc(a2-6)GalNAc
# Procedure, shortened: as §1
binder,measurement,setting,value
FaeGac (Escherichia coli) (protein) WMTGDFNGSVDIGGSITADDYRQKWEWKVGTGLNGFGNVLNDLTNGGTKLTITVTGNKPILLGRTKEAFATPVTGGVDGIPHIAFTDYEGASVVLRNPDGETNKKGLAYFVLPMKNAEGTKVGSVKVNASYAGVLGRGGVTSADGELLSLFADGLSSIFYGGLPRGSELSAGSAAAERTKLFGSLSRNDILGQIQRVNANITSLVDVAGSYRENMEYTDGTVVSAAYALGIANGQTIEATFNQAVTTSTQWSAPLNVAITYY,glycan array binding signal (z-score),[1],-0.688
same,glycan array binding signal (z-score),Neu5Ac(a2-3)Gal(b1-4)Glc,-0.079
same,glycan array binding signal (z-score),[2],-0.399
same,glycan array binding signal (z-score),[3],0.176
same,glycan array binding signal (z-score),[4],-0.28
same,glycan array binding signal (z-score),[5],0.035
same,glycan array binding signal (z-score),[6],0.223
same,glycan array binding signal (z-score),[7],-0.423
same,glycan array binding signal (z-score),[8],-0.227
same,glycan array binding signal (z-score),[9],-0.588
same,glycan array binding signal (z-score),[10],-0.546
same,glycan array binding signal (z-score),[11],-0.333
same,glycan array binding signal (z-score),[12],-0.095
same,glycan array binding signal (z-score),[13],-0.634
same,glycan array binding signal (z-score),[14],-0.693
same,glycan array binding signal (z-score),Neu5Ac(a2-3)GalNAc,-0.665
same,glycan array binding signal (z-score),[15],-0.657
same,glycan array binding signal (z-score),[16],0.008
same,glycan array binding signal (z-score),[17],0.339
same,glycan array binding signal (z-score),[18],-0.177
same,glycan array binding signal (z-score),Neu5Ac(a2-6)Gal,-0.568
same,glycan array binding signal (z-score),Neu5Ac(a2-6)Gal(b1-4)Glc,-0.173
same,glycan array binding signal (z-score),[19],-0.423
same,glycan array binding signal (z-score),[20],-0.698
same,glycan array binding signal (z-score),[21],-0.258
same,glycan array binding signal (z-score),[22],0.107
same,glycan array binding signal (z-score),Neu5Ac(a2-6)GalNAc,-0.15
same,glycan array binding signal (z-score),[23],-0.322
same,glycan array binding signal (z-score),Neu5Ac(a2-8)Neu5Ac,-0.531
same,glycan array binding signal (z-score),[24],-0.55
same,glycan array binding signal (z-score),[25],-0.451
same,glycan array binding signal (z-score),[26],-0.754
same,glycan array binding signal (z-score),[27],-0.622
same,glycan array binding signal (z-score),[28],0.292
same,glycan array binding signal (z-score),[29],-0.318
same,glycan array binding signal (z-score),Neu5Ac(b1-6)GalNAc,0.084
same,glycan array binding signal (z-score),[30],-0.697
same,glycan array binding signal (z-score),[31],-0.151
same,glycan array binding signal (z-score),[32],-0.004
same,glycan array binding signal (z-score),[33],-0.407
same,glycan array binding signal (z-score),Neu5Gc(a2-3)Gal(b1-4)Glc,-0.764
same,glycan array binding signal (z-score),[34],-0.637
same,glycan array binding signal (z-score),[35],-0.623
same,glycan array binding signal (z-score),[36],-0.753
same,glycan array binding signal (z-score),Neu5Gc(a2-6)GalNAc,-0.175
